Assay results as given in PubChem BioAssay AID1346428 (National Center for Advancing Translational Sciences (NCATS), 2018).
Several values for one entry are separate records, joined by “and”; a condition that tells them apart may be missing. Equal entries are not always repeated. About 1,200 (2.5%) of roughly 48,000 compounds were called active. About 2% were inconclusive and are not listed.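 Rule for the calls: active = activation of at least 60% and not above a set upper limit (about 1 call in 100 departs from these limits); inconclusive = activation of 40% to 60%, or above that upper limit; inactive = activation under 40%.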 Some of the results follow.

biological target: Probable G-protein coupled receptor 32 (Homo sapiens) (UniProt O75388); test: qHTS for Agonists of Human Resolvin D1 Receptor DRV1; conditions: CHO-K1 GPR32 beta-arrestin PathHunter luminescence, 90 min; at 76.9 µM; hits give high values; zero percent set by DMSO-only wells; note: 0% is about no effect
Outline: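 Cells are plated overnight, treated with compounds in DMSO for 90 minutes at 37 °C, and developed with PathHunter detection reagent for 1 hour before luminescence is read; signal reflects beta-arrestin binding to GPR32 in engineered CHO-K1 cells.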

Chain of UniProt O75388 (O75388 whole entry, looked up): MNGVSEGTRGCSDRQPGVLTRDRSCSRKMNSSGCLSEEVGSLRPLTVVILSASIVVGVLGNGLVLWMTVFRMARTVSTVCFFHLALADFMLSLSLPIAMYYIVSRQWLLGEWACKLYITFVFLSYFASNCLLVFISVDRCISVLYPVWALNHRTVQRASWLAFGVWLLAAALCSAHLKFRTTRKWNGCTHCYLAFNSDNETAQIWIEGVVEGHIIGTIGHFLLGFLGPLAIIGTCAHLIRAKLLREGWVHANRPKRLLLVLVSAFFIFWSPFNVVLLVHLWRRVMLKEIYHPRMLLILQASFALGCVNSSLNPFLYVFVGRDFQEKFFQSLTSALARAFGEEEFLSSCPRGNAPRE

activation, inactive:
COc1ccccc1N1CCN(CCCCN2C(=O)c3ccccc3C2=O)CC1 -5.44%
Cc1c(CCNC(=O)c2ccc(Br)o2)sc2nc(-c3ccc(F)cc3)nn12 15.8%
COc1ccc2c(CNCc3cccs3)c(C(=O)O)n(Cc3ccccc3)c2c1 43.8%
COc1ccc(NC(=O)Cn2c(SCc3cc(C)ccc3C)nc3ccncc32)c(OC)c1OC 3.99%
CCN1CCN(c2nc3c(S(=O)(=O)c4ccc(Br)cc4)nnn3c3ccsc23)CC1 -4.61%
O=C(CSc1nnc(CNC(=O)c2cccc(F)c2)n1-c1ccccc1)Nc1ccccc1F -7.23%
Cc1ccc(NC(=O)Cn2cnc3sc(C(=O)O)c(C)c3c2=O)cc1Cl -0.888%
Cc1ccc2nc(NC(=O)COc3ccc(F)cc3)sc2c1 -2.73%
CCc1cccc(NC(=O)CSC2=Nc3ccccc3N=C(c3ccc(F)cc3)C2)c1 -20.3%
CCOc1ccccc1C(=O)Nc1ccc(S(=O)(=O)Nc2nc(C)cc(C)n2)cc1 1.78%
COc1cc(NC(=O)CN(c2ccc(C)cc2)S(=O)(=O)c2cccc3nonc23)cc(OC)c1 -28.4%
COc1ccc2c(c1)c1c(c(=O)n(Cc3ccccc3)c(=O)n1CC(=O)NCc1ccccc1Cl)n2C 5.04%
Fc1ccc(-c2noc3ncnc(NCCc4ccccc4)c23)cc1 19.1%
CCOc1ccc(-c2nonc2NC(=O)COc2c(C)cc(C)cc2C)cc1OCC 19%
CCCCCn1c(C(C)NC(=O)c2ccccc2)nc2ccccc21 (stereo not given) 2.67%
COc1ccc(Nc2nc(-c3ccc(C)cc3)nc3ccccc23)c(OC)c1 -0.454%
CCc1nn(CC(=O)NCCc2ccc(OC)cc2OC)c(=O)c2cc3c(OC)cccc3n12 33.8%
CCOc1cc(CNC(=O)C2COc3ccccc3C2)cc(OCC)c1OCC (stereo not given) -17.5%
O=C(c1ccc2c(c1)N(Cc1ccc(Cl)cc1)C(=O)c1ccccc1S2=O)N1CCOCC1 (stereo not given) -5.17%
Cc1cccc(C)c1OCC(C)N (stereo not given) 10.8% and 2.05%
CCOc1ccccc1N1CC(c2nc3ccccc3n2CCOc2ccccc2)CC1=O (stereo not given) 0.107%
CCc1cccc(NC(=O)Cn2c(=O)ccc3cc(S(=O)(=O)N4CCC(C)CC4)ccc32)c1 12.2%
CCc1ccc(CNc2ncnc3c2nc2n3CCCC2)cc1 -4.72%
Cc1cc(C)c2c(CC(=O)N3CCN(c4cccc(Cl)c4)CC3)coc2c1 -34.4%
CC1CCc2nc3ncn(Cc4ccccc4C#N)c(=O)c3cc2C1 (stereo not given) -18.8%
COc1cccc(N2CCN(C(=O)c3ccc(Cn4c(=O)[nH]c5cc(OC)c(OC)cc5c4=O)cc3)CC2)c1 -1.66%
COc1ccc(C(CNC(=O)c2oc3ccc(Cl)cc3c2C)N2CCCCC2)cc1 (stereo not given) 1.95%
CCCC(=O)N(c1ccc2oc3c(c2c1)CCCC3)S(=O)(=O)c1cc(C)ccc1C -13%
O=C1CC(c2nc3ccccc3[nH]2)CN1c1cccc(Cl)c1 (stereo not given) 24.3%
Nc1nnc2c(n1)[nH]c1ccccc12 18.2%
COc1cccc(CSc2nc3cc(C(=O)NC4CCCC4)ccc3c(=O)n2Cc2ccccc2)c1 -16.5%
COC(=O)c1ccc(CSc2nc3c([nH]c4ccccc43)c(=O)n2-c2ccc(Cl)cc2)o1 -4.7%
CCCCNc1nc2c(c(=O)n(Cc3ccc(Cl)cc3)c(=O)n2C)n1C -29.3%
COc1ccc(CN2CCN(Cc3cc(=O)oc4cc(C)ccc34)CC2)c(OC)c1OC -5.68%
N#Cc1cc(NC(=O)C(=O)O)c(Cl)c(NC(=O)C(=O)O)c1 -16%
O=C(CSc1nc2ccccc2n1Cc1ccccc1)N1CCN(c2ccc(F)cc2)CC1 -13.4%
COc1ccc(-n2cc(C(=O)NCc3ccccc3)c3ccccc3c2=O)cc1 -7.19%
Cc1cc(Cl)ccc1NC(=O)c1cc(S(=O)(=O)N2CCOCC2)cn1C -5.55%
CCC(=O)N1CCc2cc(Br)cc(S(=O)(=O)Nc3ccc(C)cc3C)c21 -6.32%
COc1ccc(CC(=O)N2CCc3cc(OC)c(OC)cc3C2COc2ccc(OC)cc2)cc1 (stereo not given) -4.32%
CCN(C(=O)c1cc2c(s1)-c1c(C)cccc1OC2)c1ccccc1F -10.7%
CCc1cc(=O)oc2c3c(c(Cl)cc12)OCN(Cc1cccc(OC)c1)C3 -37.2%
CC(C)Oc1ccc(CNC(=O)CCCN2C(=O)c3cccnc3Oc3ccc(Cl)cc32)cc1 -20.1%
CCOC(=O)c1scc(-c2ccccc2)c1S(=O)(=O)Nc1cc(OC)cc(OC)c1 -35.9%
COc1ccc(-n2nc(C(=O)N(C)c3cc(C)ccc3C)c3c4ccccc4n(C)c3c2=O)cc1Cl -1.52%
O=C(Cn1cc(SCc2c(F)cccc2Cl)c2ccccc21)N1CCCCCC1 -24.9%
CCOc1ccc(NS(=O)(=O)c2ccc(-c3cc(C)no3)s2)cc1 -5.7%
Cc1ccc(C)c(NC(=O)c2cnn(-c3cccc(F)c3)c2C2CCN(C(=O)OC(C)(C)C)CC2)c1 -6.04%
CCN(c1ccccc1)S(=O)(=O)c1ccc(NC(=O)c2cc(=O)c3cc(C)cc(C)c3o2)cc1 30.6%
Cc1c(Cl)cccc1NC(=O)c1cnc2sc(N3CCOCC3)nn2c1=O -8.5%
CCC(=O)N1c2ccccc2CC1C(=O)NCCc1ccccc1C (stereo not given) -8.47%
O=C(Nc1ccc2nn(-c3ccccc3)nc2c1)c1cc2ccccc2o1 5.78%
Cc1ccc(S(=O)(=O)Nc2ccc3c(c2)CCCN3C(=O)c2cccs2)cc1 -20.1%
Cc1cc2ccccc2n1CCNC(=O)c1cccc(Br)c1 25.1%
O=C(CSc1cn(CC(=O)N2CCOCC2)c2ccccc12)Nc1ccccc1F -14.4%
